Test results from patent EP3298025B1, “NEW AMINO ACID SEQUENCES WITH MI[…] DERIVED FROM NAJA ATRA CARDIOTOXIN 1 (CTX-1)” (Università degli Studi di Parma, priority 2015, dated 2016).
“And” between values parts separate entries of the source, which are not always exact repeats. Equal entries are not always repeated. Not every detail of the peptide structures is certain; ends, links or a residue may be inferred. No end group written: not given here.

Legend:
Format in all cases: cell-based
[1] = tested on: Acinetobacter baumanii from skin (herpetological); experiment: micro-dilution in liquid medium and transplant on agar, Gram-negative bacteria; conditions: 2 hours at 37°C, transplant on agar
Experimental: (§1) For each bacterial strain 3-5 morphologically similar colonies from fresh cultures were taken and inoculated in Brain Heart Infusion broth, then incubated at 37°C in agitation at 225 r.p.m. for about 3-4 hours. Then the bacterial suspension was centrifuged at 1000 G for 20 minutes and the pellet resuspended in phosphate buffer pH 7, 10 mM. The turbidity of the bacterial suspension was measured using a spectrophotometer with absorbance of 600 nm; the range 0.08-0.13 equates to about 10^8 cfu/ml. The bacterial suspension was diluted 1:100 in phosphate buffer 10mM to obtain a bacterial concentration of about 10^6 cfu/ml. Within 30 minutes 50 µl of the suspension (10^6 cfu/ml) were inoculated in each well of the microtiter plate, to obtain a bacterial concentration of about 5x10^5 cfu/ml.
(§2) The peptides ability to inhibit the bacterial growth in liquid cultures was tested. 50 µl of each peptides solutions of about 0,2-50 µM were added in microtiter plates with 96 wells with U-shaped bottom, containing the liquid culture medium and one of these bacterial strains: E coli ATCC 25922, Pseudomonas. Aeruginosa ATCC 27853, Proteus mirabilis ATCC 14153, Burkholderia cepacia ATCC 17759, Moraxella catharralis ATCC 25238 or other wild strains of Klebsiella pneumoniae subsp. pneumoniae, Enterobacter cloacae, Acinetobacter baumanii.
(§3) After 2 hours incubation at 37°C, the bacteria were transplanted on solid medium. As a growth reference, bacterial cultures were grown in absence of peptides.
(§4) The bacterial suspension and peptides were put in contact for 2 hours at 37°C, with differing concentrations of the peptide. Then 20 µl from each well of the plate were taken and transferred on solid culture medium, McConkey agar. The inoculum was uniformly distributed on the agar medium with aid of a sterile disposable handle. After an incubation time of 24 hours at 37°C, the bacterial colonies (cfu) were counted.

[2] = tested on: Acinetobacter baumanii from cloaca (herpetological); experiment: as above; conditions: 2 hours at 37°C, transplant on agar
Experimental: as §1, §2, §3, §4

[3] = tested on: Moraxella catharralis ATCC 25238; experiment: as above; conditions: 2 hours at 37°C, transplant on agar
Experimental: as §1, §2, §3, §4

[4] = tested on: Enterobacter cloacae (herpetological); experiment: as above; conditions: 2 hours at 37°C, transplant on agar
Experimental: as §1, §2, §3, §4

[5] = tested on: Klebsiella pneumoniae subsp. pneumoniae (herpetological); experiment: as above; conditions: 2 hours at 37°C, transplant on agar
Experimental: as §1, §2, §3, §4

[6] = tested on: Pseudomonas aeruginosa ATCC 27853; experiment: as above; conditions: 2 hours at 37°C, transplant on agar
Experimental: as §1, §2, §3, §4

[7] = tested on: Burkholderia cepacia ATCC 17759; experiment: as above; conditions: 2 hours at 37°C, transplant on agar
Experimental: as §1, §2, §3, §4

[8] = tested on: Acinetobacter baumanii from cloaca (ornithological); experiment: as above; conditions: 2 hours at 37°C, transplant on agar
Experimental: as §1, §2, §3, §4

[9] = tested on: Acinetobacter baumanii (human strain); experiment: as above; conditions: 2 hours at 37°C, transplant on agar
Experimental: as §1, §2, §3, §4

E. coli ATCC 25922 = experiment: as above; conditions: 2 hours at 37°C, transplant on agar
Experimental: as §1, §2, §3, §4

[10] = tested on: Mycobacterium fortuitum DSMZ 46621; experiment: growth inhibition of rapidly growing mycobacteria, resazurin reading; conditions: peptide 100 µg/ml (41.6 µM), 72 hours at 37°C
BoHV-1 = experiment: virus neutralization test, cytopathic effect on MDBK cells; conditions: 100 TCID50; 2 hours peptide and virus, 72 hours on MDBK cells
[11] = tested on: Mycobacterium smegmatis DSMZ 43756; experiment: growth inhibition of rapidly growing mycobacteria, resazurin reading; conditions: peptide 100 µg/ml (41.6 µM), 72 hours at 37°C
[12] = tested on: Proteus mirabilis ATCC 14153; experiment: micro-dilution in liquid medium and transplant on agar, Gram-negative bacteria; conditions: 2 hours at 37°C, transplant on agar
Experimental: as §1, §2, §3, §4

Sequence | LD90 [1] | LD99 [1] | LD90 [2] | LD99 [2] | LD90 [3] | LD99 [3] | LD90 [4] | LD99 [4] | LD90 [5] | LD99 [5] | LD90 [6] | LD90 [7] | LD99 [7] | LD90 [8] | LD99 [8] | LD90 [9] | LD99 [9] | LD90 (E. coli ATCC 25922) | also measured
KLIPILSKTIPAIKNLFYKI [NCP-2] | 0.8 µg/ml and 0.4 µM | 1.6 µg/ml and 0.7 µM | 0.8 µg/ml and 0.4 µM | 1.6 µg/ml and 0.7 µM | 0.8 µg/ml and 0.4 µM | 1.6 µg/ml and 0.7 µM | 155.9 µg/ml and 67.3 µM | 221.5 µg/ml and 95.7 µM | 168.8 µg/ml and 72.9 µM | 201.1 µg/ml and 86.9 µM | 3.77 µg/ml and 1.6 µM | 152.0 µg/ml and 65.7 µM | > 152 µg/ml and > 65.7 µM | 24,46 µg/ml and 10,6 µM | 55,98 µg/ml and 24,2 µM | 0.8 µg/ml and 0.4 µM | 1.6 µg/ml and 0.7 µM | 10.445 µg/ml and 4.5 µM | –
KLIWILSKTIPAIKNLFYKI [NCP-3] | 0.8 µg/ml and 0.3 µM | 1.6 µg/ml and 0.7 µM | 0.8 µg/ml and 0.3 µM | 1.6 µg/ml and 0.7 µM | 0.8 µg/ml and 0.3 µM | 1.6 µg/ml and 0.7 µM | 19.53 µg/ml and 8.1 µM | 25 µg/ml and 10.4 µM | 37.63 µg/ml and 15.7 µM | 50 µg/ml and 20.8 µM | 1.76 µg/ml and 0.7 µM | 40.25 µg/ml and 16.7 µM | 50 µg/ml and 20.8 µM | 5,98 µg/ml and 2,5 µM | 6,4 µg/ml and 2,7 µM | 0.8 µg/ml and 0.3 µM | 1.6 µg/ml and 0.7 µM | 7.01 µg/ml and 2.9 µM | growth inhibition [10]: inhibited; concentration that completely inhibits cytopathic effect due to the BoHV-1 replication (BoHV-1): ≥ 25 µg/mL; growth inhibition [11]: inhibited; LD90 [12]: 73.37 µg/ml and 30.5 µM; LD99 [12]: 100 µg/ml and 41.6 µM; LD99 (E. coli ATCC 25922): 14.01 µg/ml and 5.8 µM
